Reference: article PMC4336329 (PLoS ONE, 2015)
Out of some 310,000 compounds screened, about 2,200 (0.71%) showed an effect of 50% or more. The effect is printed as a negative number. The list shows a part of the results.

What follows are compounds tested against human ether-à-go-go-related gene (hERG) potassium channel (human, UniProt Q12809) (assay: primary screen, population patch clamp on CHO cells stably expressing hERG).
Sequence of human ether-à-go-go-related gene (hERG) potassium channel (Q12809 whole entry, looked up): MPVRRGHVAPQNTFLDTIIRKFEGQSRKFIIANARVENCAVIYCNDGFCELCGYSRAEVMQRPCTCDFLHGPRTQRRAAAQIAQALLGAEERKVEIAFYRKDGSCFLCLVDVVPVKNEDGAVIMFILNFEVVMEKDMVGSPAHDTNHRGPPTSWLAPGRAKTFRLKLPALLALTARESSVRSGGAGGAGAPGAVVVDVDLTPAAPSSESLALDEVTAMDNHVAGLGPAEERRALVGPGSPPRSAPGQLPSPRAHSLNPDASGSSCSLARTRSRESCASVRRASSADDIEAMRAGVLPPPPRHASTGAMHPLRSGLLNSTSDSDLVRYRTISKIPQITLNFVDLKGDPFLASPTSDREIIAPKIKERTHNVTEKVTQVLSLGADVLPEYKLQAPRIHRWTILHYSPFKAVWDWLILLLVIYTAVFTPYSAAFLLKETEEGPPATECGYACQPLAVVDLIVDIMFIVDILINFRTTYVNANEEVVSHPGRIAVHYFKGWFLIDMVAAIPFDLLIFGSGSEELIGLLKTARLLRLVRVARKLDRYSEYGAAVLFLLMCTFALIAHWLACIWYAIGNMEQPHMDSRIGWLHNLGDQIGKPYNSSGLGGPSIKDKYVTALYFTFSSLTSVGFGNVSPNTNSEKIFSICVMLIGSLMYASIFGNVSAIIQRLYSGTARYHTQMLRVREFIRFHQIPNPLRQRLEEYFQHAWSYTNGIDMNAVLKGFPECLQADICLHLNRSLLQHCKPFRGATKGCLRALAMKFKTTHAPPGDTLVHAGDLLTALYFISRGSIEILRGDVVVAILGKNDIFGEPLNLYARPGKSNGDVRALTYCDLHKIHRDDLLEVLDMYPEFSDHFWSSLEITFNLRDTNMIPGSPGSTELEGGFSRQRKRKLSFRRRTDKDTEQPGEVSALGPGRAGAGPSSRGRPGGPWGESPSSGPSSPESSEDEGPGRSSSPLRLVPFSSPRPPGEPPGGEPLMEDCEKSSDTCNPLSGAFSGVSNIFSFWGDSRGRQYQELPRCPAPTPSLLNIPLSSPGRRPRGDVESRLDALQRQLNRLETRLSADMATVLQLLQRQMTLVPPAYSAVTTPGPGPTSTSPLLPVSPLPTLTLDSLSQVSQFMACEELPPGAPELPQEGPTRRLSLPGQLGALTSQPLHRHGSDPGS

In order of falling “hERG current change (%, negative = inhibition) at 1uM” value:
1. COc1ccc(OC)c(NC(=O)NNC(=O)COc2ccc(F)cc2F)c1  52.6%
2. COC(=O)C(=N/Nc1ccccc1C(=O)OC)/C(C)=N/O  29.4%
3. Cc1noc(C)c1C(=O)N1CCCC(Nc2ccc(C(C)C)cc2)C1 (stereo not drawn)  26.5%
4. COc1cc(/C=C/C(=O)NCC2CCCCC2)cc(OC)c1OC  20.5%
5. Nc1nnc(CSCc2ccccc2Cl)s1  18.5%
6. CN(Cc1cn(C)nc1-c1ccccc1F)Cc1nccn1C  17.8%
7. O=c1nc2cccc3c2=c(/c1=C(\O)c1ccccc1)c1ccccc1c3=O  17.5%
8. CCn1cc(C(=O)O)c(=O)c2ccc(C)nc21  16.8%
9. Cc1ccc(P(C)(=O)c2ccc(C)cc2)cc1  16.8%
10. c1ccc(C2=Nc3cccc4cccc(c34)N2)cc1  16.7%
11. CCn1ncc(NC(=S)NCCc2ccc(OC)c(OC)c2)c1C(N)=O  16.4%
12. Cc1c(Cl)cccc1NC(=O)Cn1c(CCC(=O)O)ccc1-c1ccccc1  15.7%
13. CCn1nnnc1-c1ccc(OC)c(S(=O)(=O)Nc2ccc(C)c(C)c2)c1  15.6%
14. CCCC(=O)Nc1ccc(Br)cn1  15.5%
15. CCc1cccc(NC(=O)c2snc3c(=O)[nH]cnc23)c1  14.7%
16. CCOC(=O)c1ccc(NC(=O)COc2cc3oc(=O)c(CC(C)O)c(C)c3cc2Cl)cc1 (stereo not drawn)  14.5%
17. COc1ccc(/C=N/OCc2ccc(Br)cc2)c(OC)c1  14.1%
18. COc1ccc(/C=C/c2nc(S(=O)(=O)c3ccccc3)c(N(C)C)o2)cc1OC  14.1%
19. CCc1cc2ccc(C)c(C)c2nc1SCC(=O)Nc1cc(C)on1  13.4%
20. COCCCNc1nnc(Cc2ccc(Cl)cc2)c(=O)[nH]1  13.3%
21. O=C(O)c1[nH]c2ccccc2c1NS(=O)(=O)c1ccc(F)cc1  13.2%
22. CCOc1cc(C(C(=O)NCC2CCCO2)N(C(=O)Cn2nnc3ccccc32)c2ccc(NC(C)=O)cc2)ccc1O (stereo not drawn)  13.2%
23. O=C(Nc1cccc(N=Cc2cc(Br)cc(Br)c2O)c1)c1ccco1  13%
24. Nc1c(C(=O)c2ccc(F)cc2)oc2ccccc12  13%
25. O=C(COc1ccc(Br)cc1Cl)Nn1cnnc1  12.7%
26. CCOC(=O)/C=c1\sc2n(c1=O)CCN=2  12.3%
27. Cc1cc(C)c2oc(C(=O)Nc3ccc(S(=O)(=O)Nc4nccs4)cc3)cc(=O)c2c1  12.2%
28. O=C(NCc1ccc2[nH]c3c(c2c1)CCCC3)c1ccc(S(=O)(=O)N2CCCC2)cc1  12%
29. O=[N+]([O-])c1cnc(Nc2ccccc2)nc1Nc1ccccc1  11.6%
30. Cc1cc(C)n(CCCNC(=O)C(C)(C)Oc2ccc(Cl)cc2)n1  11.5%
31. Fc1ccc2[nH]c3c(c2c1)CN(C(=S)NCc1ccccc1)CC3  11.5%
32. CN(C(=O)c1cc(-c2ccc3c(c2)OCO3)on1)c1ccccc1  11%
33. Cc1ccc(-n2c(SCC(=O)Nc3nccs3)nc3c(c2=O)SCC3)cc1  11%
34. O=C(NCCOc1ccc(Cl)cc1)C1CCCCC1  10.9%
35. CCCCCOC(=O)c1ccccc1C(=O)O  10.8%
36. O=C(NCCNC1CCN(Cc2ccccc2)CC1)c1cccs1  10.7%
37. Cc1cc(NC(=O)Nc2ccc(Cl)cc2)n(C)n1  10.6%
38. Cc1ccc(F)cc1NC(=O)Cc1nn(C)c(=O)c2ccccc12  10.5%
39. C=CCOC(=O)CCCCCCCC  10.5%
40. O=C(O)/C=C/c1cccc(OCc2ccccc2)c1  10.4%
41. O=C(NCCN1CCOCC1)C1CCC(CNS(=O)(=O)c2ccc(Cl)cc2)CC1 (stereo not drawn)  10.2%
42. COCCCNC(=O)c1c(F)c(F)c(F)c(F)c1F  9.89%
43. CCC(C)c1ccc(OCC(=O)NNC(=O)C2CCCCC2)cc1 (stereo not drawn)  9.76%
44. Cc1ccnc(NC(=S)NC(=O)c2cncc(Br)c2)c1  9.65%
45. O=C(C1CCC1)N(CCc1ccccc1)Cc1nc2ccccc2c(=O)[nH]1  9.63%
46. Cc1cccc([C@@H]2[C@@H]3C(=O)N(Cc4ccccc4)C(=O)[C@@H]3[C@]3(CC(C)C)C(=O)N(c4cccc(Cl)c4)C(=O)N23)c1  9.24%
47. CCOC(=O)c1ccc(NC(=O)CSc2nnc(C3CC3)n2CC)cc1  9.08%
48. COc1ccc(OC)c(CCNC(=O)Cc2ccc(NC3=NC4CS(=O)(=O)CC4S3)cc2)c1 (stereo not drawn)  8.86%
49. Cn1c(=O)c2c(nc(N3CCOCC3)n2Cc2c(F)cccc2Cl)n(C)c1=O  7.99%
50. CCCCn1c(N)c(N(CCOC)C(=O)COC(=O)COc2ccccc2C#N)c(=O)[nH]c1=O  7.9%
51. COC(=O)C(Cc1ccccc1)NS(=O)(=O)c1ccccc1Br (stereo not drawn)  7.84%
52. O=C(Nc1nnc(Cc2ccc(Cl)cc2)s1)c1ccco1  7.67%
53. Cc1ccc(C)c(N(Cc2cc3ccc(C)cc3[nH]c2=O)C(=O)c2ccco2)c1  7.61%
54. CCCNc1nc(OC)nc(N2CC3CC(C2)c2cccc(=O)n2C3)n1 (stereo not drawn)  7.46%
55. COc1ccc(-c2cc(-c3nnc(COC(=O)CC4CC5CCC4C5)o3)c3ccccc3n2)cc1OC (stereo not drawn)  7.43%
56. O=C1C(=O)N(c2cccc(Cl)c2)C(c2ccccc2[N+](=O)[O-])/C1=C(\O)c1ccccc1 (stereo not drawn)  7.28%
57. Cc1cc(=O)c2cc(C(=O)c3ccccc3)ccc2[nH]1  6.79%
58. CCN(CC(=O)Nc1ccc(NC(C)=O)cc1)C(=O)C(c1ccccc1)c1ccccc1  6.64%
59. Cc1cc(C)n(-c2ccc(C(=O)NCc3ccc4c(c3)OCO4)cc2)n1  6.48%
60. CCOc1ccc(Nc2ncnc(N)n2)cc1  6.01%
61. CC(C)c1ccc(NC2CCCN(C(=O)c3cccnc3)C2)cc1 (stereo not drawn)  5.91%
62. Cc1cc2ccccn2c1C(=S)NC(=O)c1ccccc1  5.71%
63. Cc1ncc(CSc2nccc(=O)[nH]2)c(CO)c1O  5.69%
64. COc1ccc(N2CC(C(=O)NCCN3C(=O)S/C(=C\c4cccnc4)C3=O)CC2=O)c(OC)c1 (stereo not drawn)  5.51%
65. CCCCNC(=O)CCN1N=C(c2ccccc2)CCC1=O  5.08%
66. CS(=O)(=O)c1ccc(CNC(=O)C2(C(F)(F)F)CC(CCCO)CCCO2)cc1 (stereo not drawn)  5.06%
67. Nc1ccc(C(=O)O)c(O)c1.Nc1ccc(C(=O)O)c(O)c1  4.97%
68. O=C(COC(=O)Cc1ccc(S(=O)(=O)N2CCOCC2)s1)Nc1ccc([N+](=O)[O-])cc1  4.97%
69. COC(=O)c1[nH]c2cccc(C)c2c1NC(=O)CN1CCN(C(=O)c2ccco2)CC1  4.59%
70. CCc1nc(N2CCOCC2)c(C#N)c2c1CCCC2  4.28%
71. Cc1cc2ccccc2n1CCNC(=O)C1CCCCC1  3.99%
72. COc1ccc(-c2csc(NC(=S)NC(=O)/C=C/c3ccco3)n2)cc1OC  3.48%
73. COCCCC1CCN(C(=O)CCc2nnc(CCCCc3ccccc3)o2)CC1  3.1%
74. COc1ccccc1NC(=O)C1CCN(c2ncccn2)CC1  3.1%
75. CN(C)S(=O)(=O)N(CC(=O)Nc1ccccc1F)c1ccccc1  3.07%
76. CCCC(C)NC(=O)C1CCN(S(=O)(=O)c2ccccc2)CC1 (stereo not drawn)  1.63%
77. CCNC(=O)CCSc1nc(C)cc(C)n1  1.33%
78. Cc1ccc(C(=O)NCCc2nnc3ccc(SCC(=O)Nc4ccc(C)cc4C)nn23)cc1  1.09%
79. O=C(CSc1nnnn1-c1ccccc1)N1CCNC1=O  0.938%
80. O=C(Nc1cc(-c2nn(CC(=O)N3CCCCC3)c(=O)c3ccccc23)ccc1N1CCOCC1)c1ccc(Cl)cc1  0.79%
81. CCCc1nn(C)c2c(=O)[nH]c(-c3cc(S(=O)(=O)Nc4ccc(NC(C)=O)cc4)ccc3OCC)nc12  0.706%
82. COc1c(Cl)ccc(Cl)c1C(=O)NC(=O)N1CCOCC1  0.0853%
83. O=C(C1CC(c2ccc(F)cc2)=NO1)N1CCC2(CC1)OCCO2 (stereo not drawn)  -0.18%
84. Cc1ccc(-n2cc(CNC(C)c3cnn(C)c3)c(-c3ccc(F)cc3)n2)cc1 (stereo not drawn)  -0.806%
85. Cc1ccc(NC(=O)CSc2n[nH]c(-c3ccccn3)n2)cc1  -1.35%
86. Nc1cc2c(cc1C(=O)c1ccccc1)OCCO2  -1.86%
87. CC(C)N1C(=O)CCC1C(=O)N1CCC2(CC1)OCCO2 (stereo not drawn)  -7.6%
88. O=C(CCCc1ccccc1)Nc1ccnn1C1CCN(Cc2ccccc2)CC1  -18.8%
89. Cc1sc2ncnc(N3CCC(C(=O)N(C)CC(=O)Nc4ccccc4Cl)CC3)c2c1C  -30%
90. COc1ccccc1CN(C)C(=O)c1cc(C)nc2ccccc12  -47.6%
